“And” between values parts separate entries of the source, which are not always exact repeats. Equal entries are not always repeated.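 Five compound concentrations were applied to cells in 96-well plates for 48 hours; endpoints were derived by simple linear interpolation of the resulting dose-response curve. GI50 is the concentration that inhibits growth by half. The concentration for full growth arrest is given as TGI.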
Tested on: NCI-H322M lung
Assay: NCI-60 cell line screen, 48 h

| SMILES | TGI | GI50 |
| --- | --- | --- |
| Oc1ccc(-c2nc(-c3ccc(F)cc3)c(-c3ccc4ccccc4n3)[nH]2)cc1 | 46.5 µM | – |
| COc1cc(-c2nn(-c3cccc(NC(=O)Nc4ccc(Cl)c(Cl)c4)c3)cc2-c2ccncc2)ccc1Cl | > 50 µM | 1.69 µM |
| CCCCn1c(C)c2c(c1C)C(=O)N(CC(O)CN1CCc3ccccc3C1)C2=O (configuration not stated) | > 100 µM | – |
| N#C/C=C(\c1ccc([N+](=O)[O-])cc1)n1nnc2cc(Cl)c(Cl)cc21 | 11.4 µM | 3.02 µM |
| Cc1ccsc1/C=N/Nc1ccc2ccccc2n1 | 98.7 µM | – |
| CCOc1ccc2nc(S/C(=C/C=C(C#N)C#N)c3ccc(C)cc3)sc2c1 | > 100 µM | > 100 µM |
| CS(=O)(=O)CCCn1c(=O)c(Oc2ccc(F)cc2F)cc2cnc(NC3CCOCC3)nc21 | > 25 µM | > 25 µM |
| CC(=O)Nc1ccc2cc(C)c(=O)[nH]c2n1 | > 100 µM | – |
| CC1=C2CCCC2=C/C(=N/Nc2ccc([N+](=O)[O-])cc2[N+](=O)[O-])CC1 | > 100 µM | – |
| O=C(O)[C@H](NS(=O)(=O)c1ccc2ccccc2c1)c1ccccc1 | > 100 µM | – |
| Cc1[nH]c2ccccc2c1-c1cc(-c2cc(-c3c(C)[nH]c4ccccc34)on2)no1 | > 100 µM | – |
| CCOC(=O)c1csc(NC(=O)CN2CCN(C)CC2)n1 | > 100 µM | – |
| COc1ccc(C(=O)/C=C/c2ccncc2)cc1OC | 29.2 µM | – |
| CCOP(=O)(O)C(C)(C)NC | > 100 µM | – |
| CCC1C2C=CC(CC2)N1S(=O)(=O)c1ccc(C)cc1 (configuration not stated) | > 100 µM | – |
| C=Cc1c(C)c2cc3nc(cc4[nH]c(cc5nc(cc1[nH]2)C(C)=C5CCC(=O)O)c(CCC(=O)OC)c4C)[C@@]1(C)C3=CC=C(C(=O)OC)[C@H]1C(=O)OC | 4 µM | 1.79 µM |
| CCc1c(OC(C)=O)c2c(NC3OC(COC(C)=O)C(OC(C)=O)C(OC(C)=O)C3OC(C)=O)nc(OC)nc2oc1=O (configuration not stated) | > 100 µM | – |
| COC(=O)CN(C)P(=O)(N1CC1)N1CC1 | > 100 µM | – |
| CC1=CC(=O)[C@@H](O)[C@]2(C)[C@H]3[C@@]4(O)OC[C@]35[C@H]([C@@H](C)[C@H]4O)[C@@H](O)C(=O)O[C@@H]5C[C@@H]12 | 25.8 µM | – |
| CN1C(=O)C(CC=O)(C(C)(C)C)c2ccccc21 (configuration not stated) | > 100 µM | – |
| O=[N+]([O-])c1cc2c(c3nonc13)OCCCCO2 | 41.1 µM | – |
| O=C(CCc1cc(O)cc(O)c1)NCCc1cc(O)cc(O)c1 | > 100 µM | – |
| O=C(NC(CO)Cc1ccc(Oc2cc(CC(CO)NC(=O)OCc3ccccc3)ccc2OC(=O)OCc2ccccc2)cc1)OCc1ccccc1 (configuration not stated) | 92.2 µM | – |

| SMILES | TGI | GI50 |
| --- | --- | --- |
| Cc1nc2ccccc2nc1-c1ccc(N=[N+]([O-])c2ccc(-c3nc4ccccc4nc3C)cc2)cc1 | > 100 µM | – |
| CCOC(=O)C(=Cc1cccc(Cl)c1)C(=O)OCC | 7.66 µM | 2.4 µM |
| CC12CC(C#N)(C#N)C(C#N)(CO1)C(=N)O2 (configuration not stated) | > 100 µM | – |
| C1CSCCSCCS1 | > 100 µM | – |
| CC1(C)OC2C(O)CN3CCS[C@H]3C2O1 (some centres not stated) | > 100 µM | – |
| Cc1cc(OCc2nnc3n2N=C(c2cc(F)c(Cl)cc2Cl)/C(=C/c2ccc(Cl)cc2)S3)ccc1Cl | > 100 µM | – |
| O=C(NCCCN(CCCCN(CCCNC(=O)C(F)(F)F)CCCc1ccccc1)CCCc1ccccc1)C(F)(F)F | 4.94 µM | – |
| COc1ccc(C(O)c2nccn2C)c(OC)c1 (configuration not stated) | > 100 µM | – |
| Cc1ccc(S(=O)(=O)N/N=C/c2oc(-c3ccncc3)c(-c3ccncc3)c2[N+](=O)[O-])cc1 | > 100 µM | – |
| Cc1nc2cnc(N)c(C#Cc3cncc(C(=O)Nc4ccc(CN5CCN(C)CC5)c(C(F)(F)F)c4)c3)c2nc1C | 4.6 µM | 0.322 µM |
| C[C@@H]1C[C@](O)([C@@H](C)Cl)C(=O)O[C@@H]2CCN3CC=C(COC(=O)[C@]1(C)O)[C@H]23 | > 100 µM | – |
| Cc1ccc(Cn2c(C)nc3c2C(=O)c2ccccc2C3=O)cc1 | > 100 µM | – |
| CC(C)(C)c1cc(C(=O)/C=C/C=C/c2ccccc2)cc(C(C)(C)C)c1O | > 100 µM | – |
| COC12C=C/C(=C(/C(=O)OCc3ccncc3)C(=O)CCCCCCCCC3(OC)C=C/C(=C(/C(=O)OCc4ccncc4)C(=O)CCCCCCCC1)O3)O2 | 2.05 µM | 0.83 µM |
| CCOC(=O)c1cc(C2(O)CCN(CC(C)CC)C2=O)c(-c2cc(C)no2)[nH]1 (configuration not stated) | > 100 µM | – |
| COC(=O)c1c(O)ccc2c1c1c(n2Cc2ccc(Cl)cc2Cl)C(=O)c2ccccc2C1 | > 100 µM | – |
| COC(=O)[C@]1(C)CCCC2(C)C1CC[C@H]1C=C(C)[C@H]3CCC12C3 (some centres not stated) | > 100 µM | – |
| C[C@@]12CCC3C1C=C1C(=O)c4cc(O)ccc4C(=O)[C@]1(O2)[C@@]3(C)C=O | 19 µM | – |
| CN(C)c1c([O-])c(=[N+](C)C)c1=O | > 100 µM | – |
| O=C(c1ccc(F)c(F)c1Nc1ccc(I)cc1F)N1CC(O)([C@@H]2CCCCN2)C1 | 13.9 µM and > 10 µM | < 0.0369 µM and 0.27 µM |
| Cc1cccc(C(C)C)c1NC(=O)CC1Sc2ccccc2NC1=O (configuration not stated) | > 100 µM | – |
| CC(=O)n1c2c(c(=O)n1-c1ccccc1)S(=O)CCC2 (configuration not stated) | > 100 µM | – |
| COc1ccc(CN(Cc2ccc(OC)cc2)C(=O)CC2(O)C=CCC2)cc1 (configuration not stated) | > 100 µM | – |

| SMILES | TGI | GI50 |
| --- | --- | --- |
| O=C1[C@@H]2C3c4ccccc4C([C@@H]2C(=O)N1c1ccccc1)S3(=O)=O | > 100 µM | – |
| Nc1c(C(=O)Nc2cccc(Br)c2)sc2nc3c(cc12)C(=O)CCC3 | > 100 µM | 0.461 µM |
| CC(=O)OC12c3ccccc3-c3ccccc3C1C1C(=O)N(C)C(=O)C12Cl (configuration not stated) | > 10 µM | – |
| O=C(NCCCCN=c1cccccc1NCCCCNC(=O)OCc1ccccc1)OCc1ccccc1 | 71.8 µM | – |
| CC(=O)Nc1ccc(-c2nc3cc(Cl)ccc3o2)cc1 | > 50 µM | – |
| COc1cc(C2c3cc4c(cc3C(O)C(CO)C2CO)OCO4)cc(OC)c1OC (configuration not stated) | > 100 µM | 2.89 µM |
| CC12CCC3C(CCC4=CC(O)CCC43C=O)C1(O)CCC2c1ccc(=O)oc1 (configuration not stated) | 0.133 µM and 0.0542 µM | 0.05 µM |
| O=C1NN=C2C=C(c3ccc(Cl)cc3)CC(c3cccc(Cl)c3)C12 (configuration not stated) | > 100 µM | – |
| CC(C)=C1C(=O)C[C@]2(C)C[C@H]3/C(=C(/C)CCC12)CC[C@@]3(C)O (some centres not stated) | > 50 µM | – |
| COc1ccc(N2C(=O)CS(=O)(=O)C2c2cccc(Oc3ccccc3)c2)cc1 (configuration not stated) | > 100 µM | – |
| NCCCNCCCCNCCCN | > 100 µM | – |
| O=[N+]([O-])c1ccc(-n2nnc(C3=NCCN3)c2-c2ccc(Cl)cc2)cc1 | > 100 µM | – |
| COc1ccc(C(OCC2OC(n3cc(C)c(=O)[nH]c3=O)CC2n2cc(Cn3cc(Br)c(=O)[nH]c3=O)nn2)(c2ccccc2)c2ccccc2)cc1 (configuration not stated) | > 100 µM | – |
| COc1cc(/C=C/C(=O)O)ccc1C(=O)OCc1ccccc1 | > 100 µM | – |
| COc1cccc(/C=N/[N-]C(=O)c2ccncc2)c1[O-].[Cu+2].[OH3+] | > 100 µM | 26.3 µM |
| COc1cccc2c1C(=O)c1c(O)c3c(c(O)c1C2=O)CC(O)(/C(C)=N/NC(=O)CCC(=O)N/N=C(\C)C1(O)Cc2c(O)c4c(c(O)c2C(OC2CC(N)C(O)C(C)O2)C1)C(=O)c1c(OC)cccc1C4=O)CC3OC1CC(N)C(O)C(C)O1 (configuration not stated) | > 19 µM | 1.34 µM |
| CCOc1ccc(N2C(=O)/C(=C/c3ccc(N(CCC#N)CCC#N)cc3)N=C2c2cc([N+](=O)[O-])ccc2Cl)cc1 | > 100 µM | – |
| CC(NNC(=O)CC(=O)N(C(=O)c1ccccc1)c1ccc(Cl)cc1)c1cc2ccccc2oc1=O (configuration not stated) | > 10 µM | – |
| CC(CCC#N)(CCC#N)C(=O)CC(O)(C(F)(F)F)C(F)(F)F | 35.8 µM | – |
| COc1cc2c(cc1O)C1C(O)C(O)C=C3CCN(C2)C31 (configuration not stated) | 15.6 µM | – |
| O=c1c2ccccc2sc2cccc(NCCCN3CCN(CCCNc4cccc5sc6ccccc6c(=O)c45)CC3)c12 | > 100 µM | – |
| CC(C)=CCc1c(O)ccc2ccc(=O)oc12 | > 100 µM | – |
